In publication PMC6900781 one finds binding data, which are given here for twelve substances.

By UniProt entry, the sequences of proteins in these tests, tags left out. Where a name states a change or a piece, a line headed by the entry shows the natural chain unless it says otherwise. Residues count along the entry.
UniProt Q9V6Q2: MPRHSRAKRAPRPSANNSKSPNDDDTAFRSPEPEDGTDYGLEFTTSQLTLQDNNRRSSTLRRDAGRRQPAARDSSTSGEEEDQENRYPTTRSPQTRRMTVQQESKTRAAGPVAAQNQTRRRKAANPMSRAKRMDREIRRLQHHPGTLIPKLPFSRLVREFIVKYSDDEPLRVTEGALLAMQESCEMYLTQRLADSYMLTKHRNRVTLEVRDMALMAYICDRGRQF
UniProt Q9VEN2: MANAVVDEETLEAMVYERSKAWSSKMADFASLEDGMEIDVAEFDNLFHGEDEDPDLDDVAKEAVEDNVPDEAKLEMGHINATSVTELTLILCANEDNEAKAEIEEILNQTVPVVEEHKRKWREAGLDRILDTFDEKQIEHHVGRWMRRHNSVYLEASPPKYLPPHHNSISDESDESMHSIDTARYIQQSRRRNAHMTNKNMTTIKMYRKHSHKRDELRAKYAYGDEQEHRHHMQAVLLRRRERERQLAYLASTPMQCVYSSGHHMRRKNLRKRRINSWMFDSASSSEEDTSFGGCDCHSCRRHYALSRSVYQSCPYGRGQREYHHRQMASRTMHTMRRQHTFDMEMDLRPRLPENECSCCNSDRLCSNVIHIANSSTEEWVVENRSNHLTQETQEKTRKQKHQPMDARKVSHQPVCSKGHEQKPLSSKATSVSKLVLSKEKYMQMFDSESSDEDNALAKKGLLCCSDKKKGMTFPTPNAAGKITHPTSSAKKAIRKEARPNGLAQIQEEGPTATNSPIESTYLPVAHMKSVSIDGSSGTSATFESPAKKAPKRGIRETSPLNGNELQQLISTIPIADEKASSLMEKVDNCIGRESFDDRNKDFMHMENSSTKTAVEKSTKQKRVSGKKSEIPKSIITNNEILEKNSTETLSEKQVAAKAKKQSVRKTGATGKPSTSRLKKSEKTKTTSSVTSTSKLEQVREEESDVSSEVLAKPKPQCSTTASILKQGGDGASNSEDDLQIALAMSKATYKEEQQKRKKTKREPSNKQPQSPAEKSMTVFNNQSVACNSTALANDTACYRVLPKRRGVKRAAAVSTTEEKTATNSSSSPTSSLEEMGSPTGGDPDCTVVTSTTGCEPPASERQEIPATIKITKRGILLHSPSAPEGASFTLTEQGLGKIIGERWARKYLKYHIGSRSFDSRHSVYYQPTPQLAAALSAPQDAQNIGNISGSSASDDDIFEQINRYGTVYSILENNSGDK
CAL1(1-407)-GFP-LacIw: residues 1-407 of Q9VEN2
CAL1(1-160)-GFP-LacIw: residues 1-160 of Q9VEN2

In test [1] the target is dCENP-A-GFP-LacI (Drosophila melanogaster) (UniProt Q9V6Q2). Nature of the test: LacI/LacO tethering and recruitment assay (immunofluorescence); bait fused to GFP-LacI tethered to chromosomal LacO arrays in human U2OS cells; HA- or V5-tagged prey transiently co-expressed; IF 48 h after transfection, prey intensity at the LacO spot or % of cells; no third Drosophila centromere protein co-expressed.

In test [2] the target is CAL1-GFP-LacI (Drosophila melanogaster) (UniProt Q9VEN2). The description is as above.
Test [3] deals with T1, GFP-LacI-dCENP-C(1009-1411) (Drosophila melanogaster) (UniProt Q9VHP9).
T1 sequence: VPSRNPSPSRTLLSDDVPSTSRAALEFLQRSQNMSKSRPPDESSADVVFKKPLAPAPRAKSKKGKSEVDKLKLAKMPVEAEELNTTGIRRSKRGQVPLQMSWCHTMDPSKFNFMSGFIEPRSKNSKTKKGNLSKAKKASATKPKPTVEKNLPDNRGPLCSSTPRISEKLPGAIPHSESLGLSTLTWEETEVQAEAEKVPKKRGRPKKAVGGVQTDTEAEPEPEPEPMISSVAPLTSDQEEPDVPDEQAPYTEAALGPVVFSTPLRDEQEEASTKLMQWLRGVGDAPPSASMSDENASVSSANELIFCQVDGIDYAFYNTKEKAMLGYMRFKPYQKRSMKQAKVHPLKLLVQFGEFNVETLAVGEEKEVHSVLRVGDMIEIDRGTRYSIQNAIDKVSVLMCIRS
Described as above.

Test [4] concerns the target T2, GFP-LacI-dCENP-C (Drosophila melanogaster) (UniProt Q9VHP9).
T2 sequence: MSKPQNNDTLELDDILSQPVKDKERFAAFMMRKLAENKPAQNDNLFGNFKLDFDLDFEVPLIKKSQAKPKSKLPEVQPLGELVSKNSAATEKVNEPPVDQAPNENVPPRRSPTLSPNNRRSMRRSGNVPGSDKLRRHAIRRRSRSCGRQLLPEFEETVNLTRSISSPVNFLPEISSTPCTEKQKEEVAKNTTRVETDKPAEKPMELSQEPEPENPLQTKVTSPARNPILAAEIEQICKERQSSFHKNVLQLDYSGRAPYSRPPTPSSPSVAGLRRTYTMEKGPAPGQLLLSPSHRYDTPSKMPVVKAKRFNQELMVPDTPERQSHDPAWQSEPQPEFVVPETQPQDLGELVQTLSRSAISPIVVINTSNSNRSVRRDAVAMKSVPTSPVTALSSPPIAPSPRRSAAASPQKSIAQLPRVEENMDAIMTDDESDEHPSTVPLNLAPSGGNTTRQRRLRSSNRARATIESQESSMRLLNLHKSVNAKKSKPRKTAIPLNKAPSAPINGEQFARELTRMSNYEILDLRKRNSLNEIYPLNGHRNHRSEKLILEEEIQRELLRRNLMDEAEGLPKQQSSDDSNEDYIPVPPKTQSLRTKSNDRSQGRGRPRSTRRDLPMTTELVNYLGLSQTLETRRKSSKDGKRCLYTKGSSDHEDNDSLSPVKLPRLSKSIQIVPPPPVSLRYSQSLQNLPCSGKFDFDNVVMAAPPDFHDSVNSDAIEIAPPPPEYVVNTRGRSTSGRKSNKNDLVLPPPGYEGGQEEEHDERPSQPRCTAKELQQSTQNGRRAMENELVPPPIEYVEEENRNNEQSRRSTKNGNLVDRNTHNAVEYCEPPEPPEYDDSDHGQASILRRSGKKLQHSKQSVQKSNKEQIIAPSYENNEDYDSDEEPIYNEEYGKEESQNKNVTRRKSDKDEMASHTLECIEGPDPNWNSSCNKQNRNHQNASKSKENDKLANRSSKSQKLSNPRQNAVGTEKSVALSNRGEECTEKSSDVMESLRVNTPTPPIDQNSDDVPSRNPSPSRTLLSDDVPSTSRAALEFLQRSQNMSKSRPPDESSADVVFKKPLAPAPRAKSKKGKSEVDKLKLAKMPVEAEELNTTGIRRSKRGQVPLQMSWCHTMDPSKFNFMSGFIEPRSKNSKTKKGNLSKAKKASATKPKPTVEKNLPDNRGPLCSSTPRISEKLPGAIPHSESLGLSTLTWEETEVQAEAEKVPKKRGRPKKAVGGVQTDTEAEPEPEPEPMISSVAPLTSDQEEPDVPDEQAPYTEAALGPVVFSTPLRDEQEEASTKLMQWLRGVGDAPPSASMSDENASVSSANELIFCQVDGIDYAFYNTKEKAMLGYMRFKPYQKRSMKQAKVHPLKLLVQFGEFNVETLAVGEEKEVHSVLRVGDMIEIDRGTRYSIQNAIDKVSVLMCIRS
Described as above.

In test [5] the target is dCENP-A-GFP-LacIw (Drosophila melanogaster) (UniProt Q9V6Q2). Nature of the test: LacI/LacO tethering and recruitment assay (immunofluorescence); bait fused to the IPTG-sensitive GFP-LacIw tethered to LacO arrays in U2OS cells, TetR marks the arrays; without IPTG.
Test [6] shares this target. Kind of test: condition: only after IPTG (15 mM, 1 h), when only the nucleosomal pool of dCENP-A-GFP-LacIw is left at the LacO arrays; LacI/LacO tethering and recruitment assay (immunofluorescence); as a4, after 15 mM IPTG for 1 h 48 h after transfection: the LacIw tether is released and only chromatin-assembled (nucleosomal) dCENP-A stays at LacO.
Test [7] concerns the target dCENP-A-GFP-LacI (Drosophila melanogaster) (UniProt Q9V6Q2). Kind of test: LacI/LacO tethering and recruitment assay (immunofluorescence); as a1, but with a third Drosophila centromere protein (CAL1-V5, dCENP-A-HA or -V5, or HA-dCENP-C) co-expressed, as named in the row.
The target of test [8] is dH3^L1α2+C-GFP-LacI (Drosophila melanogaster) (UniProt P02299+Q9V6Q2). Kind of test: LacI/LacO tethering and recruitment assay (immunofluorescence); bait fused to GFP-LacI tethered to chromosomal LacO arrays in human U2OS cells; HA- or V5-tagged prey transiently co-expressed; IF 48 h after transfection, prey intensity at the LacO spot or % of cells; no third Drosophila centromere protein co-expressed.

Test [9] concerns the target dH3^L1α2-GFP-LacI (Drosophila melanogaster) (UniProt P02299+Q9V6Q2). The test is described as above.
The target in test [10] is dCENP-A-GFP-LacI (Drosophila melanogaster) (UniProt Q9V6Q2). Nature of the test: ChIP-qPCR at LacO DNA; HA-tagged human protein immunoprecipitated with HA antibody from cross-linked U2OS-LacO chromatin in the presence of Drosophila centromere proteins targeted to LacO; qPCR of LacO and alpha-satellite DNA.
The target of test [11] is CAL1-GFP-LacI (Drosophila melanogaster) (UniProt Q9VEN2). The description is as above.
Test [12] has as its target T2, GFP-LacI-dCENP-C (Drosophila melanogaster). The test is described as above.
For test [13], the target named is CAL1(1-407)-GFP-LacIw (Drosophila melanogaster) (UniProt Q9VEN2). Kind of test: LacI/LacO tethering and recruitment assay (immunofluorescence); bait fused to the IPTG-sensitive GFP-LacIw tethered to LacO arrays in U2OS cells, TetR marks the arrays; without IPTG.
Test [14] concerns the target CAL1(1-160)-GFP-LacIw (Drosophila melanogaster) (UniProt Q9VEN2). The test is described as above.
The target of test [15] is CAL1-GFP-LacI (Drosophila melanogaster) (UniProt Q9VEN2). Nature of the test: LacI/LacO tethering and recruitment assay (immunofluorescence); as a1, but with a third Drosophila centromere protein (CAL1-V5, dCENP-A-HA or -V5, or HA-dCENP-C) co-expressed, as named in the row.
Test [16] addresses dCENP-A-GFP-LacI (Drosophila melanogaster) (UniProt Q9V6Q2). Kind of test: LacI/LacO tethering and recruitment assay (immunofluorescence); bait fused to GFP-LacI tethered to LacO arrays in U2OS cells; endogenous human centromere proteins detected at LacO by IF.
The target of test [17] is CAL1-GFP-LacI (Drosophila melanogaster) (UniProt Q9VEN2). Described as above.
In test [18] the target is T2, GFP-LacI-dCENP-C (Drosophila melanogaster). Described as above.

These are yes or no findings as the source states them, for the method shown. Some binding calls cover weakened binding; strength is not graded here. For some of these results: Where a sequence is shown, tags or fusion partners need not be part of it.

As to “CAL1(1-160)-HA (from UniProt Q9VEN2 1-160) (domain or fragment)”, the binding entry in test [1] is listed as “binds”; in test [2], “no binding”.

For “CAL1(1-407)-HA (from UniProt Q9VEN2 1-407) (domain or fragment)”, the binding entry in test [3] is recorded as “no binding”; in test [2], “binds”.

For the substance “CAL1(101-407)-HA (from UniProt Q9VEN2 101-407) (domain or fragment)”, in test [2], the binding result is “binds”.

Turning to “CAL1(392-722)-HA (from UniProt Q9VEN2 392-722) (domain or fragment)”, in test [2], the binding entry is on record as “no binding”.

On to “CAL1(699-979)-HA (from UniProt Q9VEN2 699-979) (domain or fragment)”, for which the values for the binding entry in [3], in test [2] and in [4] were “binds”, “no binding” and “binds”, respectively.

As for CAL1-HA (from UniProt Q9VEN2 1-979), the binding entry in [5] is listed as “binds”; in [3], “binds”; in test [4], “binds”; in [6], “no binding”.

Turning to CAL1-V5 (from UniProt Q9VEN2 1-979), the binding entry is “binds” in test [7], “binds” in test [8] and “binds weakly” in [9].

As for “HA-tagged HJURP (from UniProt Q8NCD3 1-748)”, the binding entry in test [10], in [11] and in test [12] was “no binding” in each case.

“HA-tagged hCENP-A (from UniProt P49450 1-140)”: the binding entry in [10], in test [11] and in test [12] was “no binding” in each case.

Take “dCENP-A (co-expressed in the IPTG experiments, no tag named) (from UniProt Q9V6Q2 1-225)”: the binding result in [13] and in test [14] was “binds” throughout.

For the substance dCENP-A-V5 (from UniProt Q9V6Q2 1-225), in [15], the binding result is reported as “binds”.

For the substance “hCENP-A (endogenous) (from UniProt P49450 1-140)”, the binding entry in [16], in test [17] and in [18] was “no binding” each time.
